A collection of fitness landscapes (doi:10.1016/j.celrep.2020.107928)
Whole data set: some 81,000 sequences, median “one-hybrid fitness for binding parS DNA” near -0.17, cut for the highest 2% near 0.51. This is one part of the list.

B1: Caulobacter ParB omega fusion; a variant is named by its letters at X, in order, B8GW30 (parent)
chain: MESVVVGEPGMSEGRRGLGRGLSALLGEVDAAPAQAPGEQLGGSREAPIEILQRNPDQPRRTFREEDLEDLSNSIREKGVLQPILVRPSPDTAGEYQIVAGERAWRAAQRAGLKTVPIMVRELDDLAVLEIGIIENVQRADLNVLEEALSYKVLMEKFERTQENIAQTIGKSXSHVANXMRLLXLPDEVQSYLVSGELTAXHARAIAAAADPVALAKQIIEGGLSVRETEALARKAPNLSAGKSKGGRPPRVKDTDTQALESDLSSVLGLDVSIDHRGSTGTLTITYATLEQLDDLCNRLTRGI

Variants of: B1
Assay: one-hybrid fitness for binding parS DNA (scaled: cognate 1, non-cognate 0); higher = stronger binding
Conditions: with parS DNA site
Summary of the method: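 Pre- and post-selection plasmids were Illumina-sequenced, three replicate libraries were pooled, and any variant with under 10 reads was removed. The libraries were Caulobacter ParB with four specificity codons randomised, selected in E. coli USO through a HIS3 reporter whose site is 19 bp from the promoter. Cells grew 48 hours at 37°C on M9 without histidine, with 0.1 mM IPTG and 5 mM 3-AT. Fitness is the log change in variant-to-wild-type read ratio, rescaled against cognate and non-cognate.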

one-hybrid fitness for binding parS DNA, ≤ 0.2:
YNYG
RARD
QSDS
ENQP
AAYQ
QSKP
PAVW
KFKR
ELLM
KDYA
SKMT
CVPN
PQIS
FNDG
EDPM
CRNR
PNAS
YAWT
LPHR
RDAC
RKVI
QLNP
QCLM
EAEA
CLPC
YLLG
RNRQ
PCNI
YGIL
ELQA
NAQT
TRQD
PMNA
MNQT
IEHG
PSKH
YYTG
YHST
SGRT
VIWL
RQEW
HVKL
TPAW
PVTM
KFHS
YMVV
VFSR
ARNM
RRCD
KYVC
VVTM
TDIW
LYES
NARC
ATPQ
HTPW
QHNN
PTVD
EEMR
IRGL
WTFV
TPWC
HKIY
HKIR
QELW
DYAT
KRER
QNKG
TYPM
RPIA
NMHS
QHYQ
PRDI
FPMV
FATV
IFEL
PCKY
QLIG
MYCS
SECT
QGDS
IATR
IRAR
SLHD
MKCL
SMSA
WKFG
NCPT
WRSG
TEWL
VLLE
ATKV
NRPC
PMNY
RWNW
REIE
KGAS
SAVE
